The whole screen tested about 310,000 compounds, of which about 14,000 (4.5%) showed an effect of 50% or more. The effect is printed as a negative number. Some of the results follow.
target: human ether-à-go-go-related gene (hERG) potassium channel (human, UniProt Q12809); assay: primary screen, population patch clamp on CHO cells stably expressing hERG
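Note: peak tail current of the secondary pulse compared with the same well before compound.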

human ether-à-go-go-related gene (hERG) potassium channel, sequence (Q12809 whole entry, looked up): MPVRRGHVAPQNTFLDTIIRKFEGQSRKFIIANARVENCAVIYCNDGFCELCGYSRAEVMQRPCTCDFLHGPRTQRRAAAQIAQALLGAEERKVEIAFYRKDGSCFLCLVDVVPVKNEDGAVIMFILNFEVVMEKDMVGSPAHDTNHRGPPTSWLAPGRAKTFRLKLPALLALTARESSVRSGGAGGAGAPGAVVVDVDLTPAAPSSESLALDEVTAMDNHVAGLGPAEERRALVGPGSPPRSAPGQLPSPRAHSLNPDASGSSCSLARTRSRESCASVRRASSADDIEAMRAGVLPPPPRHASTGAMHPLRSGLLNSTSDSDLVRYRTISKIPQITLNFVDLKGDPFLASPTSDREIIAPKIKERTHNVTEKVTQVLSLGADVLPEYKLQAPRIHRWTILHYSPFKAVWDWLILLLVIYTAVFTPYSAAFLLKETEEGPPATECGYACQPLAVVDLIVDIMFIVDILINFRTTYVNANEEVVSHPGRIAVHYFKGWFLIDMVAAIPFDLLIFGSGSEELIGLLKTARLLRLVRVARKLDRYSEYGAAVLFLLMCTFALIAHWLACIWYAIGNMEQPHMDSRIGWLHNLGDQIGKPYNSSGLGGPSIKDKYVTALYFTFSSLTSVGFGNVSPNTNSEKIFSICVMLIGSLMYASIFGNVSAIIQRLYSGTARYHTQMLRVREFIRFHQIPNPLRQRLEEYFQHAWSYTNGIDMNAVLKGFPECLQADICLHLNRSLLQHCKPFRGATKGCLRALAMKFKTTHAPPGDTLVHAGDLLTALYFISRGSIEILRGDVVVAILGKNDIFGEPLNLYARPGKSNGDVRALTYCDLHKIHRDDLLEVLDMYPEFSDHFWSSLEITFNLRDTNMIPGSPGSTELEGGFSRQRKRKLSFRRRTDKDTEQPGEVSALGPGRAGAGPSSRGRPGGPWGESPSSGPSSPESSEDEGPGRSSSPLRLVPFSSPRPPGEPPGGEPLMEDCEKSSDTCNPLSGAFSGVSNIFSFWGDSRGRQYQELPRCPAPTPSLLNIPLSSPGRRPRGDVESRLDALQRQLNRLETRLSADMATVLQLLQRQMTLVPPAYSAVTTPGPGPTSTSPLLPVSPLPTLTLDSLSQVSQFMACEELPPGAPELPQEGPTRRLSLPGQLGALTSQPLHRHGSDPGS

| Compound | hERG current change (%, negative = inhibition) at 10uM [%] |
| --- | --- |
| Cc1ccc(Cc2cnc(N3C(=N)SC(c4ccccc4)C3=O)s2)cc1 (stereo not shown) | 3.87 |
| COc1ccc(S(=O)(=O)N2CCOCC2)cc1NC(=O)CN(C)Cc1c(F)cccc1Cl | -21.2 |
| CCCCN(C)C(=O)c1ccc2c(c1)N(CC)C(=O)c1ccccc1S2(=O)=O | -7.66 |
| Cc1ccc(C2(C)NC(=O)N(CC(=O)Nc3ccc4c(c3)OCO4)C2=O)cc1 (stereo not shown) | -3.02 |
| CCCCCCn1c(O)c(C=NCCN2CCCCC2)c(=O)[nH]c1=O | -51.9 |
| COc1ccc(C(=O)NC(=S)N(C)C2CCCCC2)cc1Br | 17.2 |
| O=C(NCCS(=O)(=O)N1CCN(Cc2ccccc2)CC1)c1ccc(F)cc1 | -43.8 |
| Cc1cnc([N+](=O)[O-])n1CCOC(=O)NC(=O)c1ccccc1Cl | 8.87 |
| O=C(COC(=O)c1ccccc1C(=O)c1ccccc1)NCCc1ccccc1 | -64.8 |
| O=C(O)COc1ccc(/C=N/NC(=O)c2cn(-c3ccccc3)nc2-c2ccccc2)cc1 | -9.37 |
| CC(NS(=O)(=O)c1ccc(CCC(=O)N2CCN(C)CC2)cc1)c1ccccc1 (stereo not shown) | 3.59 |
| COc1ccc(-c2nn(-c3ccccc3)cc2C(=O)NC(=S)N2CCOCC2)cc1OC | 30.1 |
| CCOc1ccc(-c2n[nH]c(C(=O)NN)c2C)cc1 | -9.03 |
| COc1ccc(S(=O)(=O)N2CCCCC2)cc1NC(=O)c1cccnc1SC | -20.7 |
| COc1ccc(OC)c(-n2nnnc2SCC(=O)Nc2cc(C)ccc2OC)c1 | 3.04 |
| CCN(C(=O)CSc1nc(C)nc2sc(C)c(C)c12)C1CCS(=O)(=O)C1 (stereo not shown) | -16.4 |
| NC(=O)C(c1ccc(Cl)cc1Cl)c1ncc(C(F)(F)F)cc1Cl (stereo not shown) | -19.3 |
| COc1cc(/C=N\NC(=O)CN2CCOCC2)ccc1OCC(=O)Nc1ccc(C)c(C)c1 | -32.4 |
| NS(=O)(=O)c1ccc(CNC(=O)C2CCCCC2)cc1 | 14.8 |
| CC1=C(C(=O)OC2CCCCCCC2)C(c2cc3c(cc2Br)OCO3)CC(=O)N1 (stereo not shown) | 15.1 |
| COc1cccc(Nc2nc(=O)[nH]nc2C)c1 | -8.95 |
| CCCCNC(=O)Nc1ccccc1C(=O)NCc1ccco1 | -10.2 |

| Compound | hERG current change (%, negative = inhibition) at 10uM [%] |
| --- | --- |
| COc1ccc(Nc2nc3ccccc3nc2NS(=O)(=O)c2ccc(NC(C)=O)cc2)cc1 | 15 |
| COc1ccc(-c2nc3c(c(SCC(=O)N4CCOCC4)n2)Cc2c(CO)cnc(C)c2O3)cc1 | 0.00838 |
| C=CCOc1cccc(/C=N/NC(=O)CC(=O)NC2CCCCC2)c1 | 19.2 |
| COc1cccc(N(CC(=O)NC2CCCCC2)C(=O)CCCC(=O)Nc2ccccn2)c1 | 13.2 |
| Cc1[nH]n(-c2ccccc2)c(=O)c1C=Nc1ccc(S(N)(=O)=O)cc1 | -10.1 |
| CCOC(=O)c1cc(C)n(CCc2cnc[nH]2)c1C | -10.2 |
| COC(=O)C1=C(N)OC2=C(C(=O)CC(C)(C)C2)C1c1cccs1 (stereo not shown) | 6.56 |
| CCCCOc1ccc(C(=O)Nc2cccc(-n3cnnn3)c2)cc1OC | 7.78 |
| CCOc1ccc(-c2cnc3n2CCCCC3)cc1 | -63.3 |
| COCCN=c1scc(-c2ccc3c(c2)NC(=O)CO3)n1/N=C(\C)c1ccc(O)cc1 | -8.23 |
| C=CCn1c(SC2CCOC2=O)nc2sc(CC)cc2c1=O (stereo not shown) | -65.4 |
| COc1ccc(CNC(=O)c2sc(=S)n(-c3ccc(OC)cc3)c2N)cc1 | -27.5 |
| O=P(c1ccccc1)(c1ccccc1)c1nc(-c2ccccc2)oc1NCc1ccccc1 | 3.15 |
| CC(=O)c1ccc(NC(=O)CSc2nnc(Cn3c(=O)sc4ccccc43)n2C)cc1 | -9.73 |
| COc1ccc(C(=O)c2sc(Nc3ccccc3)nc2C)cc1 | 0.747 |
| COc1ccc(NC(=S)NC(NC(=O)c2cccc(Cl)c2)C(Cl)(Cl)Cl)c([N+](=O)[O-])c1 (stereo not shown) | 2.21 |
| COc1ccc(CNC(=O)CN2CCN(c3ccccc3O)CC2)cc1OC | 12.6 |
| CCOC(=O)c1sc2nc(CSc3ccccc3)nc(N3CCC(C(N)=O)CC3)c2c1C | 17.5 |
| Cc1cc([N+](=O)[O-])cc(/C=N/n2c(C)nc3ccccc3c2=O)c1O | -20.2 |
| CCOC(=O)C1CCCN(C2CC(=O)N(c3ccccc3)C2=O)C1 (stereo not shown) | -6.35 |
| COc1cccc(C(=O)Nc2ccc3c(c2)C(=O)NC3=O)c1 | -2.29 |

From article PMC4336329 (PLoS ONE, 2015)
